Screen size: about 46,000 compounds; about 60 (0.1%) were called active. Another 3% or so got no clear call; they are omitted. Calls follow the shape of the dose curve; as a rule, active = well fitted inhibition curve with a large enough effect; inconclusive = small, poorly fitted or top-dose-only effect; inactive = no such curve, though single readings can be large or run the other way. The list shows a part of the results.
Experiment: Primary qHTS assay for Inhibitors of ovarian cancer metastasis using an organotypic tumor microenvironment (TME) model. Also: nearly all actives have a fitted effect of over 65% in size.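 As to activity change, negative = inhibition: plate controls were DMSO wells for no effect and tomatine positive control wells for full effect.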
Conditions: SKOV3ip1-GFP adhesion/invasion on 3D omental model, fluorescence; series mostly up to 45.8 µM; activity change, negative = inhibition: at the top concentration
In short: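 qHTS, 4-pt dose (0.36-46 umol/L); SKOV3ip1-GFP, 1,200 cells/well, no FBS; primary omental fibroblast/mesothelial co-culture 48 h pre-grown; 2 h RT + 16 h 37 C; PBS wash, 4% PFA; GFP count 488/509 nm.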

outcome, inactive:
O=C(c1ccc(F)cc1)N1c2nc(-c3ccco3)nn2C2(CCCCC2)[C@@H]2CCCC[C@@H]21
Cc1ccccc1/C=C(\C#N)c1nc(-c2ccc(Cl)cc2)cs1
CC1CN(C(=O)N2CCC(C(=O)NCCCc3ccccc3)CC2)c2ccccc2O1 (configuration not stated)
CC(=O)N1CCc2c(sc3c2c(=O)n(Cc2ccccc2)c(=O)n3Cc2cc(C)ccc2C)C1
CCCCCn1c(CCNC(=O)c2cccc(C)c2)nc2ccccc21
CCCCOc1ccc(CNC(=O)c2ccc3c(c2)N(C)C(=O)C2CCCCN32)cc1 (configuration not stated)
CCC(=O)N1CCc2cc(CNS(=O)(=O)c3cccs3)ccc21
CCSc1nc2c([nH]c3ccccc32)c(=O)n1-c1ccc(F)cc1

Activity change, negative = inhibition, inactive:
CNS(=O)(=O)c1cn(CC(=O)Nc2ccc(OC)cc2OC)cc1S(=O)(=O)NC -2.47%
Cc1ccc(/C=C/c2onc(C)c2S(=O)(=O)N2CCC(C(=O)Nc3ccc(Br)c(C)c3)CC2)cc1 -16.5%
CCC(CC)C(=O)Nc1cc(-c2ccccc2F)nn1-c1ccccc1 5.1%
Cc1ccc(CNS(=O)(=O)c2cc3c(cc2Cl)NC(=O)CO3)o1 -17.1%
NS(=O)(=O)c1ccc(NC(=O)CSc2ccc3ccccc3n2)cc1 -0.984%
COc1ccccc1C(=O)Nc1ccc(C(=O)OCc2cc(=O)n3nc(C)sc3n2)cc1 -1.97%
CCN(CC)C(=O)Cn1c(=O)n(-c2ccccc2)c(=O)c2c3c(sc21)CCC3 1.62%
Cc1ccc(CNC(=O)c2nnc(Cc3ccc(Cl)cc3)o2)cc1 1.38%
COc1ccc(CCN2C(=O)CN(C3CCCCCC3)C(=O)C2c2ccc(OC(C)C)c(OC)c2)cc1OC (configuration not stated) 7.21%
CN(C(=O)c1ccc2c(Cl)c3c(nc2c1)CCC3)c1ccccc1F 6.98%
Cc1csc2nc(-c3ccc(NS(=O)(=O)c4cc(F)ccc4F)cc3)cn12 -6.21%
COc1ccc2c(c1)Cc1sc(NC(=O)c3cccc(Br)c3)nc1-2 -16.4%
Cc1ccc(CNC(=O)CN2C(=O)C3(SCC(=O)N3c3ccc(F)cc3)c3ccccc32)cc1 (configuration not stated) -12.4%
Cc1ccc(NC(=O)Cn2c(-c3cncs3)nc3ccccc32)c(Br)c1 -8.69%
CCOc1ccc(Nc2oc(/C=C/c3cccc(OC)c3)nc2C#N)cc1 12.1%
Cc1cc(C)c2c(n1)sc1c(=O)n(-c3ccccc3C(F)(F)F)nnc12 -0.437%
CCc1ccc(CNC(=O)C2CCCN(S(=O)(=O)c3ccc4c(ccn4C)c3)C2)cc1 (configuration not stated) -26.1%
COc1ccc(CNC(=O)CCc2nc(-c3ccc(OC)cc3)no2)cc1 -0.922%
CCOC(=O)C(CC)Sc1c(CC)cnc2c1c(=O)n(C)c(=O)n2C (configuration not stated) 5.51%

Reference: PubChem BioAssay AID1963576 (National Center for Advancing Translational Sciences (NCATS), 2024)
